# Reference: PubChem BioAssay AID449756 (Broad Institute, 2010)
# Over roughly 2,300 compounds, “protection from cell death (ATP increase)” has its median near -18; the highest 2% begin near 170. The list shows a part of the results. Potency and affinity values are given separately. Entries without a call are filed as inconclusive in the source.
# Assay: beta cell apoptosis inhibitors, cytokine rescue, dose response, luminescence, retest (AID 449756)
# Settings: INS-1E rat beta cells, ATP luminescence 48 h; at 26 µM (top of the series) unless noted
row,SMILES,protection from cell death (ATP increase)
1,COc1cc2c(cc1OC)[C@@H]1C(=O)c3ccc4c(c3O[C@@H]1CO2)C[C@H](C(C)C)O4,145%
2,c1ccc2c3c([nH]c2c1)C1(CCNCC1)NCC3,-19.9%
3,CC(C)(C)c1ccc(CSc2cnn(C(C)(C)C)c(=O)c2Cl)cc1,153%
4,NC(N)=N/N=C/c1cn(-c2ccccc2)nc1-c1cccs1,-43.7% [at 6 µM]
5,CCN1/C(=C\C=C\C2=[N+](CC)c3ccccc3C2(C)C)C(C)(C)c2ccccc21,146%
